From patent publication US20240101670A1 (Eli Lilly, published 2024)

What was measured:
[1] = target: cynomolgus monkey LAIR1 on cells (cynomolgus monkey); assay: cell-based or functional assay
human LAIR1 on cells [2] = target: T1, human LAIR1 on cells (human, UniProt Q6GTX8 22-287); assay: cell-based or functional assay
T1 sequence: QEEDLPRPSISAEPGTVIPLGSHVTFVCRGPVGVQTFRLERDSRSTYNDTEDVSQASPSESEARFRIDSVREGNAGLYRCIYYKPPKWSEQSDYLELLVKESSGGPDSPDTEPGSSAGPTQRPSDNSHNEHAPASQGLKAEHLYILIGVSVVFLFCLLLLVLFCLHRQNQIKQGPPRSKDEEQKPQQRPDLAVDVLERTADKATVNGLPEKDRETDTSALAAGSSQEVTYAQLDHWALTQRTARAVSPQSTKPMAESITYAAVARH

human LAIR1 on cells [3] = target: T1, human LAIR1 on cells; assay: flow cytometry, Jurkat-hLAIR1+ cells
Procedure: (§1) The anti-human LAIR1 antibodies were evaluated for binding to human and cynomolgus monkey (cyno) LAIR1 engineered cell lines and primary human T cells that endogenously express LAIR1. Jurkat-hLAIR1+ (Jurkat cell overexpressing human LAIR1), Jurkat-LAIR1ko (Jurkat cell knocking out human LAIR1), Jurkat-cyLAIR1+ cells (Jurkat LAIR1ko cell expressing cyno LAIR1), and primary human T cells were incubated with the anti-human LAIR1 test antibodies. […] Cells were then washed and incubated with anti-human IgG Alexa Fluor 647 secondary antibody for 20 minutes at 4° C. Cells were then washed and antibody binding was evaluated by flow cytometry. For primary human T cells, cells were also stained for CD4 and CD8 to delineate CD4+ and CD8+ T cells.

human LAIR1 on cells [4] = target: T1, human LAIR1 on cells; assay: flow cytometry, primary human CD4+ T cells (endogenous LAIR1)
Procedure: as §1

human LAIR1 on cells [5] = target: T1, human LAIR1 on cells; assay: cell-based or functional assay; remark: listed apart in the source
[6] = target: T2, cynomolgus monkey LAIR1 on cells (cynomolgus monkey); assay: flow cytometry, Jurkat-cyLAIR1+ cells
T2 construct: whole, on cells; Jurkat LAIR1ko cells expressing cyno LAIR1; also called cyno LAIR1; cyLAIR1
Procedure: as §1

human LAIR1 on cells [7] = target: T1, human LAIR1 on cells; assay: cell-based or functional assay; remark: listed apart in the source
[8] = target: T3, soluble, extracellular domain (ECD) of LAIR1 (human, UniProt Q6GTX8 22-163); assay: SPR, Biacore 8K, 37 °C, antibody captured on anti-human kappa, LAIR1-ECD as analyte
T3 construct: Produced recombinantly; also called LAIR1-ECD; LAIR1 ECD protein
T3 chain: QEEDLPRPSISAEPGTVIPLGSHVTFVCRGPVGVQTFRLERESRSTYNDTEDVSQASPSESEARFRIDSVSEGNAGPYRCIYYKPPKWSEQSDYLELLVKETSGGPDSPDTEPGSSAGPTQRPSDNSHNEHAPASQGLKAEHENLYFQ
Procedure: Antibody binding affinity and kinetics were determined by surface plasmon resonance (SPR) using a Biacore 8K (Cytivia Life Sciences). Measurements were performed at 37° C. using HBS-EP+ as the running buffer (150 mM sodium chloride, 3 mM EDTA, 0.05% (w/v) surfactant P-20, and 10 mM HEPES, pH7.4). Binding experiments used the soluble, extracellular domain (ECD) of LAIR1 (SEQ ID NO: 17), produced recombinantly, which was diluted to working concentration in HBS-EP+ containing 0.1 mg/mL Bovine serum albumin. Goat anti-Human kappa (Southern Biotech) was immobilized on all eight flow cells of a CM4 sensor chip using an amine coupling kit.
Binding was evaluated using multiple analytical cycles. Each cycle is performed at a flow rate of 30 μL/minute and consists of the following steps: injection of antibody over a different flow cell (25 μL of antibody at 0.5 μg/mL at 10 μL/minute), injection of 75 μL (30 μL/min, for 150 seconds) of each LAIR1-ECD dilution (starting at 1 μM and using three-fold serial dilutions to 1.4 nM for each cycle, with one injection for each concentration) followed by a 1200 second delay for dissociation, and chip surface regeneration using three 15 μL injections (30 μL/min, for 30 seconds) of 10 mM glycine hydrochloride, pH1.7. Association and dissociation rates for each cycle were determined by fitting of the biosensor data to a simple 1:1 association model using the provided instrument analysis software to extract the kₒₙ and koff rate constants; the equilibrium binding constant KD was calculated using the relationship Kd=koff/kₒₙ.

human LAIR1 on cells [9] = target: T1, human LAIR1 on cells; assay: flow cytometry, primary human CD8+ T cells (endogenous LAIR1)
Procedure: as §1

B1: mAb3 (antibody, human IgG4 S228P, kappa)
heavy: QVQLQESGPGLVKPSETLSLTCTAFGGSISGHYWSWIRQPAGKGLEWIGRIYPSGGTNKNPSLKSRVTMSVDTSKNQFSLKLSSVTAADTAVYYCVRDYWDDYYGMDVWGQGTTVTVSSASTKGPSVFPLAPCSRSTSESTAALGCLVKDYFPEPVTVSWNSGALTSGVHTFPAVLQSSGLYSLSSVVTVPSSSLGTKTYTCNVDHKPSNTKVDKRV[human IgG4 Fc with S228P (EU numbers) omitted here]
light: [about 100 residues omitted here][about 120 residues omitted here]
notes: also called anti-human LAIR1 antibody mAb3
- Inhibition of NFAT Activity (% inhibition vs. no antibody), Jurkat-cyLAIR1+ [1]: 67.1%
- IC50 of antibody activity, Jurkat-hLAIR1+ NFAT (human LAIR1 on cells [2]): 0.0119 µg/mL
- Inhibition of NFAT Activity (% inhibition vs. no antibody), Jurkat-hLAIR1+ (human LAIR1 on cells [2]): 60.3%
- EC50 (human LAIR1 on cells [3]): 0.0534 µg/mL
- EC50 (human LAIR1 on cells [4]): 0.0401 µg/mL
- Inhibition of IL-6 response at 8 ng/mL (% inhibition vs. no antibody), primary human B cells (human LAIR1 on cells [5]): 69.6%
- EC50 [6]: 0.0834 µg/mL
- Inhibition of IFN-γ response at 1 µg/mL (% inhibition vs. no antibody), primary human T cells (human LAIR1 on cells [7]): 31.2%
- Kd [8]: 0.126 nM
- koff [8]: 0.000168 s⁻¹
- kon [8]: 1.34e+06 M⁻¹ s⁻¹
- EC50 (human LAIR1 on cells [9]): 0.0532 µg/mL
